This is one part of the list.
T1: UNK ZnF1-6 (called full-length) (human, UniProt Q9C0B0 30-357)
T1 sequence: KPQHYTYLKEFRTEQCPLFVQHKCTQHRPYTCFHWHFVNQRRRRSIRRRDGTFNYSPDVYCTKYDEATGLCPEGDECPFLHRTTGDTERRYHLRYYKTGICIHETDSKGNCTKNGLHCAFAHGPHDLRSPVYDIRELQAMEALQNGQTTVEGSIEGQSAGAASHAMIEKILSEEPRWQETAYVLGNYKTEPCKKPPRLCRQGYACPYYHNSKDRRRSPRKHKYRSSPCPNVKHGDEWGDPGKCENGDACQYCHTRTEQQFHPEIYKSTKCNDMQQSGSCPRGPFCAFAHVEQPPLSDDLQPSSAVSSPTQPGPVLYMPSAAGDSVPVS

B1: chr10:110887682:110887783:+|CDS|ENSG00000150593|msi1|FALSE|bound_elsewhere (ssRNA)
RNA: GGGAGUUCUACAGUCCGACGAUCGUUAAGAGAUUUAAAUCUUGGUGAAAUGAAAAGUGGAGUACCAGUGUUGGCAGUAUCCUUAGCAUUGGAGGGGAAGGCUAGUCAUAGAGAGAUGACAUCUAAGCUUCUUUCUGACCUUUGCAACAGAGGAUUGAGCAUCA
B2: chr17:64498535:64498649:-|3pUTR|ENSG00000108654|unk|total|mutant (ssRNA)
RNA: GGGAGUUCUACAGUCCGACGAUCUUAAACUGAGGCUUUAAUUGAUGUUAAUGCCUUAUGUCAAAUGUAAAGUCCGAAUUUGCCCGGGCUGGGACCGGGAGUGAUAUUUCCCGGACUCCGACAUUGAAAACUAAUUCAGCCUGUCAACAGAGGAUUGAGCAUCA
B3: chr12:3284911:3285012:+|3pUTR|ENSG00000011105|msi1|FALSE|unique (ssRNA)
RNA: GGGAGUUCUACAGUCCGACGAUCGGAGGACAGAACCGUUGGCAUUAUCAGGAUUCGUGUUUUGUGGGGGUGGGAGUGGAGAGUAGGGUGGUCUUGUGAGUUGUGCAGGGUGAAGACCGCUUCCCUGAGACAGGGGCAGUGGUGCAACAGAGGAUUGAGCAUCA
B4: chr3:23954599:23954720:+|CDS|ENSG00000174738|unk|FALSE|unique (ssRNA)
RNA: GGGAGUUCUACAGUCCGACGAUCAGUGAGGGUUCUGAGAAUAGUUUCCAGUCCUCCUCCUCUUCUGUUCCAUCUUCUCCAAAUAGCUCUAAUUCUGAUACCAAUGGUAAUCCCAAGAAUGGUGAUCUCGCCAAUAUUGAAGGCCAACAGAGGAUUGAGCAUCA
B5: chr17:69016252:69016390:-|CDS|ENSG00000154258|control|control|control (ssRNA)
RNA: GGGAGUUCUACAGUCCGACGAUCUUUUCAAUAGCAUGUAAUACAAAACGGCUGAAUUGCUUUCCUGUCCUCCUGGAUGUCAUUAGCAAUGGACUACUUGGAAUUUUUAAUUCGUCAGAACACAUUCAGACUGACAGAAGCACACAACAGAGGAUUGAGCAUCA
B6: chr22:17178789:17181576:-|three_prime_utr|ENSG00000093072|control|control|control (ssRNA)
RNA: GGGAGUUCUACAGUCCGACGAUCGUUGGAGAGUGAGAAAAAUACUUUCAUGGAAAUCUGGAAGAAGAGAUGGGAUAAGUUCAUAGCAGAUGUGGCUACAAAGUGAGGAGAAGCUAGCCAGCCCUCUACAAGCUGUCUUCUUGCCAACAGAGGAUUGAGCAUCA
B7: chr2:32415736:32415837:+|CDS|ENSG00000115760|unk|total|mutant (ssRNA)
RNA: GGGAGUUCUACAGUCCGACGAUCGCAGAGGAAUGUCCGUGGUGGAUAUUCCGUGCUUUAUAAAAUGAAUUAUGCCACUCGGACCGUGACUUCCGAAGAGGAGCCAAUAAAAAUACAACAUAUCAAAGAUCCCCAGGACACAAUCAACAGAGGAUUGAGCAUCA
B8: chr3:187234081:187235683:-|three_prime_utr|ENSG00000127241|control|control|control (ssRNA)
RNA: GGGAGUUCUACAGUCCGACGAUCACUUCCGACAGCACACUCCACAUUACUUAUCAGACCAUAUGGAAUGGAACACACUGACCUAGCGGUGGCUUCUCCUACCGAGACAGCCCCCAGGACCCUGAGAGGCAGAGUGUGGUAUAGCAACAGAGGAUUGAGCAUCA
B9: chr12:52514574:52514941:-|three_prime_utr|ENSG00000186081|control|control|control (ssRNA)
RNA: GGGAGUUCUACAGUCCGACGAUCCCUGCUGCAAGUCACUGCCUUCCAAGUGCAGCAACCCAGCCCAUGGAGAUUGCCUCUUCUAGGCAGUUGCUCAAGCCAUGUUUUAUCCUUUUCUGGAGAGUAGUCUAGACCAAGCCAAUUCAACAGAGGAUUGAGCAUCA
B10: chr1:37590682:37590793:-|CDS|ENSG00000134697|unk|total|mutant (ssRNA)
RNA: GGGAGUUCUACAGUCCGACGAUCAAGCAAAGCAAGUUACCAAUGUCUCUUCUCCAUGAUCGAAUCCGGCCUCAUGUAAGAUGCCGGAUAUCCCUGGUGAUGGAAUUUCCUGGGCAAACUCCAUGCAGAUCCCUCUCUAACAUACAACAGAGGAUUGAGCAUCA
B11: chr6:122432834:122432935:+|3pUTR|ENSG00000025156|msi1|FALSE|unique (ssRNA)
RNA: GGGAGUUCUACAGUCCGACGAUCAUAUAUAGAAAGAUCGGGGGUGGGAUGGGAUGGAGUGAGCCCCAUCCAGUUAGUUGGACUAGUUUUAAAUAAAGGUUUUCCGGUUUGUGUUUUUUUGAACCAUACUGUUUAGUAAAAUAACAACAGAGGAUUGAGCAUCA
B12: chr3:125228010:125228111:-|3pUTR|ENSG00000163848|msi1|total|mutant (ssRNA)
RNA: GGGAGUUCUACAGUCCGACGAUCAGUUCUCUUCAUAUUUCAUAACUACAUUUCAAUAAUUCUAAACUUUCUACAUUGAUUUUCCGAUACUUAUUUUUCAAGCUUGGUUUCUCAGCUGAUCAGAUGAAUUUAUUCAACUUCAAUCAACAGAGGAUUGAGCAUCA
B13: chr6:143501988:143502101:-|CDS|ENSG00000001036|unk|FALSE|unique (ssRNA)
RNA: GGGAGUUCUACAGUCCGACGAUCUUCAUGUGGAGGAAAUCUUUUGAUGAAUAUUGGGCCCACACUAGAUGGCACCAUUUCUGUAGUUUUUGAGGAGCGACUGAGGCAAAUGGGGUCCUGGCUAAAAGUCAAUGGAGAAGCUAUCAACAGAGGAUUGAGCAUCA
B14: chr2:240467638:240467855:+|3pUTR|ENSG00000063660|msi1|FALSE|unique (ssRNA)
RNA: GGGAGUUCUACAGUCCGACGAUCGGACGGAGGUCCCCGGUUGCUGGUCAGGUCCCCAUGGCUUGUUCUCUGGAACCUGACUUUAGAUGUUUUGGGAUCAGGAGCCCCCAACACAGGCAAGUCCACCCCAUAAUAACCCUGCCACAACAGAGGAUUGAGCAUCA

Target: T1, UNK ZnF1-6 (called full-length)
Experiment: nsRBNS (natural sequence RNA bind-n-seq); RBNS binding buffer (assumed for nsRBNS): 25 mM Tris pH 7.5, 150 mM KCl, 3 mM MgCl2, 0.01% Triton X-100, 500 ug/ml BSA, 20 U/ml SUPERase-In, 4 C; UNK is unkempt and MSI1 is Musashi-1; names of the RNAs are library labels; protein concentration not given here; high values mean tight binding

Row | Binder | binding signal [enrichment R]
1 | B1 | 0.79
2 | B2 | 0.347
3 | B3 | 1.2
4 | B4 | 2.36
5 | B5 | 0.516
6 | B6 | 0.965
7 | B7 | 0.902
8 | B8 | 0.798
9 | B9 | 0.811
10 | B10 | 0.443
11 | B11 | 9.25
12 | B12 | 15.6
13 | B13 | 1.04
14 | B14 | 0.854
